Measured values: PubChem BioAssay AID1030 (National Center for Advancing Translational Sciences (NCATS), 2008)
Hit rate of the full screen: of about 220,000 compounds, about 16,000 (7.3%) were called active. The inconclusive results got no clear call from the source; some entries with a clear call stand among them for comparison. Calls come from the whole dose curve; as a rule, active = well fitted inhibition curve with a large enough effect (not every such curve was filed as active); inconclusive = small, poorly fitted or top-dose-only effect, or another doubt; inactive = no such curve, though single readings can be large or run the other way. Potencies beside an inconclusive call are fits to weak or partial responses and may not hold up.

Target: Aldehyde dehydrogenase 1A1 (Homo sapiens) (UniProt P00352)
Test: qHTS Assay for Inhibitors of Aldehyde Dehydrogenase 1 (ALDH1A1);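 for activity, negative = inhibition: plate controls were no enzyme wells and a reference inhibitor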
Details: Purified ALDH1A1, NADH fluorescence, propionaldehyde substrate; series mostly up to 75.3 µM
Potency is the fitted concentration of half-maximal effect; tags give direction and shape of the fitted curve.

Sequence of UniProt P00352 (P00352 whole entry, looked up): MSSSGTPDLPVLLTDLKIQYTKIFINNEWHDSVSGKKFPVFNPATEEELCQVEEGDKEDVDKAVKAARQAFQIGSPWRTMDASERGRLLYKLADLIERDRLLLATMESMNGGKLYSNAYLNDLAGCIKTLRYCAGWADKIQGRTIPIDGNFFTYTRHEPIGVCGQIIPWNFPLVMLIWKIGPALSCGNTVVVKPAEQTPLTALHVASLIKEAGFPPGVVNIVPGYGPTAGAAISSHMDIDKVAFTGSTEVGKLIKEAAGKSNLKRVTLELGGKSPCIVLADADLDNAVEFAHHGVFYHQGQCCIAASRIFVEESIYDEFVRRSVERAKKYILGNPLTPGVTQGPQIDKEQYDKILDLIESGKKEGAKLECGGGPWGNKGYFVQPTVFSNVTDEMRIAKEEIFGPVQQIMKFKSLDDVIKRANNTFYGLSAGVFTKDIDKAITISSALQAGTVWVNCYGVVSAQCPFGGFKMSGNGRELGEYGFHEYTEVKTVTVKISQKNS

Potency, inactive:
COc1ccc(Nc2nc(N)nc(CSc3nc(C)cc(C)n3)n2)cc1
O=C(c1cccs1)N1CCc2ccccc2C1
CC(C)CNS(=O)(=O)c1ccc(S(=O)(=O)N2CCN(CCC#N)CC2)cc1
Cc1occc1-c1n[nH]c(=S)n1-c1ccccc1
Cc1cccc(-c2nc(CS(=O)CC(=O)N3CCCCC3)c(C)o2)c1 (centres undefined)

Potency, active:
O=C(Nc1ccc(Cl)cc1)C(c1ccccc1)N1CCOCC1 (centres undefined) 17.8 µM
CCC(C)Sc1nc2c(c(=O)[nH]c(=O)n2C)n1Cc1ccccc1Cl (centres undefined) 1.26 µM
Cn1cccc1/C=C1/SC(=S)N(CC(=O)O)C1=O 28.2 µM
COC(=O)c1cccc(-c2ccc(C(c3c(C)[nH][nH]c3=O)c3c(C)[nH][nH]c3=O)o2)c1 6.31 µM
Cc1ccccc1CN1C[C@@H]2C[C@@H](c3cn(C)nc3-c3ccccc3)N3CCC[C@@]23C1=O 1.58 µM
CCCCN1C=CC(=C2C(=O)c3ccccc3C2=O)C=C1 2.82 µM
O=C(CSc1nc2cc(Cl)ccc2s1)c1cc2ccccc2o1 28.2 µM

Potency, inconclusive:
CCOC(=O)c1sc(NC(=S)NC(=O)c2ccco2)nc1C 25.1 µM [inhibitor, partial curve]
COc1ccccc1CN(Cc1nc2ccccc2c(=O)[nH]1)S(=O)(=O)c1ccc2ccccc2c1 28.2 µM [inhibitor, partial curve]
CCCNC(=O)CS(=O)Cc1nc(-c2ccc(OC)cc2)oc1C (centres undefined) 44.7 µM [inhibitor, single point]
O=C(CN1C(=O)NC2(CCCCCCC2)C1=O)NCc1cccs1 31.6 µM [inhibitor, single point]
O=C(CNCCC1=CCCCC1)Nc1ccc(N2CCCCCC2)cc1 39.8 µM [inhibitor, single point]
O=C1NC2(CCCCC2)N(C(=O)c2ccccc2)C2=C1CCCC2 44.7 µM [inhibitor, single point]
Cc1ccc(C(=O)NC(=S)N2CCN(c3ccc([N+](=O)[O-])cc3)CC2)cc1 28.2 µM [inhibitor, single point]
CCOC(=O)/C(C#N)=C/C=C1\C=Cc2ccccc2N1CC 3.16 µM [inhibitor, full curve]
COc1ccc(C(=O)NCc2ccccc2OC)c(OC)c1 39.8 µM [inhibitor, single point]
CS/C(=C\[N+](=O)[O-])Nc1ccc(C)cc1 22.4 µM [inhibitor, partial curve]
COc1cc(C(=O)Nc2cccc(-c3cn4cccnc4n3)c2)cc(OC)c1OC 28.2 µM [inhibitor, partial curve]
CC1=CC(C)(C)Nc2ccc(OC(=O)CN3C(=O)C4CCCCC4C3=O)cc21 (centres undefined) 39.8 µM [inhibitor, single point]
CC(C)c1cc(C(=O)O)n(-c2ccccc2)n1 39.8 µM [inhibitor, single point]
CN(C)S(=O)(=O)c1ccc(C(=O)OCc2ccc([N+](=O)[O-])cc2)cc1 39.8 µM [inhibitor, single point]
CCN(CC)S(=O)(=O)c1ccc2c(c1)nc(CCC(=O)OCC(=O)Nc1cc(OC)cc(OC)c1)n2C 25.1 µM [inhibitor, partial curve]
O=C(Nc1cccc(Cl)c1)N(CCN1CCOCC1)Cc1ccccc1F 39.8 µM [inhibitor, single point]
COc1ccc(N2Cc3ccccc3/C2=N\C(=O)Nc2ccccc2)cc1 28.2 µM [inhibitor, single point]
COc1ccc(/C=N/Nc2nonc2N)cc1OC 39.8 µM [inhibitor, single point]
COc1ccc(CCNC(=O)c2nnn(-c3cccc(C)c3)c2N)cc1OC 17.8 µM [inhibitor, single point]
O=C(O)c1cc(/C=N\O)ccc1OCc1ccccc1 39.8 µM [inhibitor, single point]
Cc1ccc(N2C(N)=C(C#N)C(c3cccnc3)C3=C2CC(C)(C)CC3=O)cc1 (centres undefined) 17.8 µM [inhibitor, partial curve]
Cc1cc(N2CCCC2)nc(-c2ccccc2O)n1 22.4 µM [inhibitor, partial curve]
CCOC(=O)N1CCN(C(=O)CN(c2ccccc2OC)S(=O)(=O)c2ccc(OC)cc2)CC1 25.1 µM [inhibitor, single point]
CCCc1cc(C(N)=O)c(NC(=O)c2ccco2)s1 28.2 µM [inhibitor, partial curve]
CCOC(=O)Cc1nnc2c(Nc3ccc(C)cc3)nc3nonc3n12 39.8 µM [inhibitor, single point]
COc1cc2c(cc1OC)CN(C(=O)c1ccc(S(=O)(=O)N3CCCCCC3)cc1)CC2 39.8 µM [inhibitor, single point]
COc1ccc(CCN(C)CCC(=O)Nc2cc(C)ccc2C)cc1OC 39.8 µM [inhibitor, single point]
Nn1c(SCc2csc(-c3ccccc3)n2)nnc1-c1cccs1 39.8 µM [inhibitor, single point]
COc1ccc(NC(=O)CCS(=O)(=O)c2ccc3c(c2)CCCN3C(C)=O)cc1 39.8 µM [inhibitor, single point]
CCc1nnc2c3cnn(-c4ccccc4)c3ncn12 39.8 µM [inhibitor, single point]
CC1(C)CC(=O)c2cnc(NC(=O)CCc3ccccc3)nc2C1 39.8 µM [inhibitor, single point]

activity, negative = inhibition, inactive:
Nc1nc(SCC(=O)c2ccc(Br)cc2)c2[nH]cnc2n1 8.1% [at 13.5 µM]
